From the supplement of paper PMC12217912 come the findings set out here.

The labels stand for the following.
B1: TEV protease; numbered along this chain (parent)
chain: MGESLFKGPRDYNPISSSICHLTNESDGHTTSLYGIGFGPFIITNKHLFRRNNGTLVVQSLHGVFKVKDTTTLQQHLVDGRDMIIIRMPKDFPPFPQKLKFREPQREERICLVTTNFQTKSMSSMVSDTSCTFPSGDGIFWKHWIQTKDGQCGSPLVSTRDGFIVGIHSASNFTNTNNYFTSVPKNFMELLTNQEAQQWVSGWRLNADSVLWGGHKVFMVKPEEPFQPVKEATQL

This experiment covers variants of B1. Put plainly: raw area under fraction-flipped curve 0-4 h after induction (AUC4h, not background-subtracted), DNA-recorder readout of cleavage of the substrate (dimensionless); higher = more cleavage of the substrate by the protease variant. As to conditions: temperature: 34 °C; time window: 0-4 h after rhamnose induction. On the procedure:
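In vivo DNA recorder in E. coli TOP10(DE3) ΔrhaA at 34 °C. Each TEVp single-site mutant (parent TEVp 0) is paired with a single-site variant of the 7-mer TEVs (canonical ENLYFQ|S). The substrate sits between flexible linkers in a Bxb1-sfGFP-TEVs-SsrA fusion, so cleavage stabilises Bxb1 and speeds flipping of a recombination array, read by NGS. The value is the raw area under the fraction-flipped curve over 0-4 h after rhamnose induction (AUC4h), with ≥20 reads per time point. It is not background-subtracted; inactive controls average about 0.047.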

The other results are listed elsewhere or left out. The full chains were built here from the parent and the listed change. Inactive controls read about 0.05.
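Note: Bxb1 expression induced with 0.2% (w/v) L-rhamnose at OD600 near 0.5, cultures sampled hourly, flipped fraction per protease–substrate barcode pair counted by paired-end Illumina sequencing.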

As for MGESLFKGPRDYNPISSSICHLTNESDGHTTSLYGIGFGPFIITNKHLFRRNNGTLVVQSLHGVFKVKDTTTLQQHLVDGRDMIIIRMPKDFPPFPQKLKFREPQREERICLVTTNFQTKSMSSTVSDTSCTFPSGDGIFWKHWIQTKDGQCGSPLVSTRDGFIVGIHSASNFTNTNNYFTSVPKNFMELLTNQEAQQWVSGWRLNADSVLWGGHKVFMVKPEEPFQPVKEATQL [M125T], the “area with substrate ENLYFQA” value was determined as 0.0993, the “area with substrate ENLYFQC” value came to 0.11, the “area with substrate ENLYFQD” value was 0.0676 and the “area with substrate ENLYFQE” value came to 0.0703. The “area with substrate ENLYFQF” value was 0.103, the “area with substrate ENLYFQG” value is 0.106, the “area with substrate ENLYFQI” value worked out at 0.0649 and the “area with substrate ENLYFQK” value turned out to be 0.0667. Besides, the “area with substrate ENLYFQL” value is 0.0636, the “area with substrate ENLYFQN” value amounted to 0.0699, the “area with substrate ENLYFQP” value was 0.0588 and the “area with substrate ENLYFQR” value is 0.0588. For the same variant, the “area with substrate ENLYFQS” value was 0.103, the “area with substrate ENLYFQT” value amounted to 0.0795, the “area with substrate ENLYFQV” value is 0.0542 and the “area with substrate ENLYFQW” value came to 0.0614.

For the variant MGESLFKGPRDYNPISSSICHLTNESDGHTTSLYGIGFGPFIITNKHLFRRNNGTLVVQSLHGVFKVKDTTTLQQHLVDGRDMIIIRMPKDFPPFPQKLKFREPQREERICLVTTNFQTKSMSSNVSDTSCTFPSGDGIFWKHWIQTKDGQCGSPLVSTRDGFIVGIHSASNFTNTNNYFTSVPKNFMELLTNQEAQQWVSGWRLNADSVLWGGHKVFMVKPEEPFQPVKEATQL [M125N], the “area with substrate ENLYFQA” value is 0.109, the “area with substrate ENLYFQC” value is 0.109, the “area with substrate ENLYFQD” value was determined as 0.0686 and the “area with substrate ENLYFQG” value was determined as 0.0682. The “area with substrate ENLYFQH” value stood at 0.0855, the “area with substrate ENLYFQI” value is 0.0674, the “area with substrate ENLYFQK” value is 0.0778 and the “area with substrate ENLYFQL” value amounted to 0.0572. In addition, the “area with substrate ENLYFQM” value is 0.0866, the “area with substrate ENLYFQN” value came to 0.0724, the “area with substrate ENLYFQR” value turned out to be 0.0606 and the “area with substrate ENLYFQS” value turned out to be 0.1. The “area with substrate ENLYFQT” value came out at 0.0998, the “area with substrate ENLYFQV” value turned out to be 0.0835, the “area with substrate ENLYFQW” value amounted to 0.0725 and the “area with substrate ENLYFQY” value is 0.0809.

Regarding MGESLFKGPRDYNPISSSICHLTNESDGHTTSLYGIGFGPFIITNKHLFRRNNGTLVVQSLHGVFKVKDTTTLQQHLVDGRDMIIIRMPKDFPPFPQKLKFREPQREERICLVTTNFQTKSMSSVVSDTSCTFPSGDGIFWKHWIQTKDGQCGSPLVSTRDGFIVGIHSASNFTNTNNYFTSVPKNFMELLTNQEAQQWVSGWRLNADSVLWGGHKVFMVKPEEPFQPVKEATQL [M125V], the “area with substrate ENLYFQA” value was determined as 0.102, the “area with substrate ENLYFQC” value worked out at 0.113, the “area with substrate ENLYFQD” value is 0.0702 and the “area with substrate ENLYFQF” value was determined as 0.102. The “area with substrate ENLYFQG” value was determined as 0.0722, the “area with substrate ENLYFQI” value came to 0.053, the “area with substrate ENLYFQK” value came out at 0.0728 and the “area with substrate ENLYFQL” value is 0.0606. For the same variant, the “area with substrate ENLYFQM” value stood at 0.0913, the “area with substrate ENLYFQQ” value was found to be 0.0952, the “area with substrate ENLYFQR” value worked out at 0.0642 and the “area with substrate ENLYFQS” value came to 0.11. For the same variant, the “area with substrate ENLYFQT” value is 0.0664 and the “area with substrate ENLYFQV” value was found to be 0.0699.

Turning to MGESLFKGPRDYNPISSSICHLTNESDGHTTSLYGIGFGPFIITNKHLFRRNNGTLVVQSLHGVFKVKDTTTLQQHLVDGRDMIIIRMPKDFPPFPQKLKFREPQREERICLVTTNFQTKSMSSMVSDWSCTFPSGDGIFWKHWIQTKDGQCGSPLVSTRDGFIVGIHSASNFTNTNNYFTSVPKNFMELLTNQEAQQWVSGWRLNADSVLWGGHKVFMVKPEEPFQPVKEATQL [T129W], the “area with substrate ENLYFQA” value came out at 0.0864, the “area with substrate ENLYFQC” value was 0.0971, the “area with substrate ENLYFQF” value was 0.0792 and the “area with substrate ENLYFQG” value worked out at 0.0703. The “area with substrate ENLYFQH” value came out at 0.0547, the “area with substrate ENLYFQI” value was 0.0468, the “area with substrate ENLYFQK” value came to 0.0671 and the “area with substrate ENLYFQL” value is 0.0659. The “area with substrate ENLYFQM” value was found to be 0.0932, the “area with substrate ENLYFQN” value was determined as 0.0615, the “area with substrate ENLYFQP” value turned out to be 0.0507 and the “area with substrate ENLYFQR” value is 0.06. Also, the “area with substrate ENLYFQS” value turned out to be 0.0912, the “area with substrate ENLYFQT” value is 0.0602, the “area with substrate ENLYFQV” value was found to be 0.0668 and the “area with substrate ENLYFQW” value was 0.0645. For the same variant, the “area with substrate ENLYFQY” value was 0.0718.

Consider MGESLFKGPRDYNPISSSICHLTNESDGHTTSLYGIGFGPFIITNKHLFRRNNGTLVVQSLHGVFKVKDTTTLQQHLVDGRDMIIIRMPKDFPPFPQKLKFREPQREERICLVTTNFQTKSMSSMVSDISCTFPSGDGIFWKHWIQTKDGQCGSPLVSTRDGFIVGIHSASNFTNTNNYFTSVPKNFMELLTNQEAQQWVSGWRLNADSVLWGGHKVFMVKPEEPFQPVKEATQL [T129I], for which the “area with substrate ENLYFQA” value came to 0.0975, the “area with substrate ENLYFQC” value came out at 0.0751, the “area with substrate ENLYFQD” value came out at 0.0688 and the “area with substrate ENLYFQG” value came out at 0.0796. In addition, the “area with substrate ENLYFQI” value was 0.0337, the “area with substrate ENLYFQK” value came to 0.062, the “area with substrate ENLYFQL” value was 0.0536 and the “area with substrate ENLYFQM” value came out at 0.0964. Besides, the “area with substrate ENLYFQN” value stood at 0.0853, the “area with substrate ENLYFQQ” value was found to be 0.065, the “area with substrate ENLYFQR” value stood at 0.0587 and the “area with substrate ENLYFQS” value turned out to be 0.0815. Further, the “area with substrate ENLYFQT” value came to 0.0496, the “area with substrate ENLYFQV” value amounted to 0.0588, the “area with substrate ENLYFQW” value is 0.0657 and the “area with substrate ENLYFQY” value was 0.0664.

With MGESLFKGPRDYNPISSSICHLTNESDGHTTSLYGIGFGPFIITNKHLFRRNNGTLVVQSLHGVFKVKDTTTLQQHLVDGRDMIIIRMPKDFPPFPQKLKFREPQREERICLVTTNFQTKSMSSMFSDTSCTFPSGDGIFWKHWIQTKDGQCGSPLVSTRDGFIVGIHSASNFTNTNNYFTSVPKNFMELLTNQEAQQWVSGWRLNADSVLWGGHKVFMVKPEEPFQPVKEATQL [V126F], the “area with substrate ENLYFQA” value was 0.0998, the “area with substrate ENLYFQF” value worked out at 0.121, the “area with substrate ENLYFQH” value was 0.102 and the “area with substrate ENLYFQI” value amounted to 0.0739. Besides, the “area with substrate ENLYFQK” value was found to be 0.0731, the “area with substrate ENLYFQL” value amounted to 0.076, the “area with substrate ENLYFQM” value is 0.0965 and the “area with substrate ENLYFQN” value came out at 0.0909. In addition, the “area with substrate ENLYFQP” value came to 0.0754, the “area with substrate ENLYFQR” value came to 0.0454, the “area with substrate ENLYFQS” value worked out at 0.12 and the “area with substrate ENLYFQV” value stood at 0.057.

In the case of MGESLFKGPRDYNPISSSICHLTNESDGHTTSLYGIGFGPFIITNKHLFRRNNGTLVVQSLHGVFKVKDTTTLQQHLVDGRDMIIIRMPKDFPPFPQKLKFREPQREERICLVTTNFQTKSMSSMWSDTSCTFPSGDGIFWKHWIQTKDGQCGSPLVSTRDGFIVGIHSASNFTNTNNYFTSVPKNFMELLTNQEAQQWVSGWRLNADSVLWGGHKVFMVKPEEPFQPVKEATQL [V126W], the “area with substrate ENLYFQA” value came out at 0.115, the “area with substrate ENLYFQC” value stood at 0.146, the “area with substrate ENLYFQF” value worked out at 0.109 and the “area with substrate ENLYFQG” value was found to be 0.113. Also, the “area with substrate ENLYFQH” value was 0.0944, the “area with substrate ENLYFQI” value is 0.0503, the “area with substrate ENLYFQK” value was 0.0433 and the “area with substrate ENLYFQL” value came to 0.0802. Also, the “area with substrate ENLYFQM” value amounted to 0.114, the “area with substrate ENLYFQN” value came to 0.0813, the “area with substrate ENLYFQQ” value is 0.083 and the “area with substrate ENLYFQR” value turned out to be 0.0604. Further, the “area with substrate ENLYFQS” value is 0.12, the “area with substrate ENLYFQV” value is 0.054, the “area with substrate ENLYFQW” value was 0.0449 and the “area with substrate ENLYFQY” value came out at 0.0704.

In the case of MGESLFKGPRDYNPISSSICHLTNESDGHTTSLYGIGFGPFIITNKHLFRRNNGTLVVQSLHGVFKVKDTTTLQQHLVDGRDMIIIRMPKDFPPFPQKLKFREPQREERICLVTTNFQTKSMSSMMSDTSCTFPSGDGIFWKHWIQTKDGQCGSPLVSTRDGFIVGIHSASNFTNTNNYFTSVPKNFMELLTNQEAQQWVSGWRLNADSVLWGGHKVFMVKPEEPFQPVKEATQL [V126M], the “area with substrate ENLYFQA” value came out at 0.102, the “area with substrate ENLYFQC” value turned out to be 0.109, the “area with substrate ENLYFQD” value came to 0.0512 and the “area with substrate ENLYFQE” value was 0.0724. For the same variant, the “area with substrate ENLYFQF” value was found to be 0.078, the “area with substrate ENLYFQG” value turned out to be 0.118, the “area with substrate ENLYFQH” value worked out at 0.0808 and the “area with substrate ENLYFQI” value was determined as 0.0458. Also, the “area with substrate ENLYFQK” value is 0.0665, the “area with substrate ENLYFQM” value amounted to 0.0843, the “area with substrate ENLYFQP” value was 0.0607 and the “area with substrate ENLYFQR” value worked out at 0.0656. Further, the “area with substrate ENLYFQS” value turned out to be 0.104, the “area with substrate ENLYFQT” value was determined as 0.0588, the “area with substrate ENLYFQV” value was 0.0557 and the “area with substrate ENLYFQW” value came to 0.0638. Moreover, the “area with substrate ENLYFQY” value was 0.0744.

Consider MGESLFKGPRDYNPISSSICHLTNESDGHTTSLYGIGFGPFIITNKHLFRRNNGTLVVQSLHGVFKVKDTTTLQQHLVDGRDMIIIRMPKDFPPFPQKLKFREPQREERICLVTTNFQTKSMSSMVPDTSCTFPSGDGIFWKHWIQTKDGQCGSPLVSTRDGFIVGIHSASNFTNTNNYFTSVPKNFMELLTNQEAQQWVSGWRLNADSVLWGGHKVFMVKPEEPFQPVKEATQL [S127P], for which the “area with substrate ENLYFQA” value came out at 0.0909, the “area with substrate ENLYFQC” value worked out at 0.112, the “area with substrate ENLYFQF” value is 0.0852 and the “area with substrate ENLYFQG” value is 0.0901. Also, the “area with substrate ENLYFQI” value came out at 0.0635, the “area with substrate ENLYFQK” value amounted to 0.053, the “area with substrate ENLYFQL” value came out at 0.0732 and the “area with substrate ENLYFQN” value amounted to 0.0764. Besides, the “area with substrate ENLYFQR” value came to 0.0683, the “area with substrate ENLYFQS” value turned out to be 0.0975, the “area with substrate ENLYFQT” value was 0.0736 and the “area with substrate ENLYFQV” value was found to be 0.0158. The “area with substrate ENLYFQW” value came out at 0.0849 and the “area with substrate ENLYFQY” value is 0.0761.
